# Results reported in the supplement of paper PMC11417369.
# ± gives the standard deviation of the averaged measurements. The list shows a part of the results.
# System: PfAP2-EXP AP2 domain (GST-tagged)
# Test: gcPBM binding intensity (ln(normalized median fluorescence intensity)); higher = stronger DNA binding
# Outline: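 Each value is the highest Masliner-normalised natural-log median intensity across replicate spots of either orientation of a probe. The probes were primer-extended double-stranded 36-bp intergenic genomic sequences on an Agilent 4 × 180k array, alongside negative controls, exposed for 1 h to GST-tagged P. falciparum DNA-binding domains expressed in E. coli. Bound protein was picked up with Alexa488 anti-GST antibody and scanned at 488 nm.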
row,Sequence,gcPBM binding intensity (ln)
1,ATAAAAAAATAAATAACACACAAAATTACACGAAAA [CACACA_site3620],8.88 ± 0.66
2,TATTAAAAAATTATATGTACACATTTGTTATATACA [XGTACX_site2232],8.48 ± 0.38
3,TTCTTTATATATGTTCGTACATATTATTATAATACA [XGTACX_site1549],8.72 ± 0.33
4,AATTAAAGGAATTACAACTTTGCAAGCGCAACATAA [CACACA_negctrl_site1411],8.48 ± 0.27
5,TATGTCCATATTTCCACACACATATTATTTTTATAT [CACACA_site3798],8.94 ± 0.38
6,CACCATGTTAACAATACATGCATCACTATATAAATG [TGCATGCA_site36],8.69 ± 0.42
7,AAAAAAAAGGAAATAACACACATGTATATATTTATA [CACACA_site1606],8.39 ± 0.43
8,AGTAATTATTTTAGAGTGCATAGTTTTTTAATAAAT,8.4 ± 0.2
9,AAATATATTTTTAATAGTACAATATGAAAATTTCAT [XGTACX_site2562],8.38 ± 0.33
10,TTTTTTTTTTTTTTTTGTACTCATACATACTATTAT [XGTACX_site989],8.37 ± 0.54
11,GTACACATATATATATATATATATATATATATATAT [CACACA_negctrl_site800],9.97 ± 0.34
12,TAATTTTCATGTTCATGTACTTAAATATAAGGTAAA [XGTACX_site3284],8.36 ± 0.3
13,ATTCATAACAAAAAAAGTACTCAAAATAATAATAAA [XGTACX_site6079],8.59 ± 0.39
14,TGCCTTATTAAAAGAATTACACATATTTAATCGAAA [GTGCAC_negctrl_site153],8.06 ± 0.27
15,AAATAATTAAAAAAAAGTACACATGTGACTACATAT [XGTACX_site8767],8.85 ± 0.38
16,TCATCATATTATATATGTACATATATAATAATTTAT [XGTACX_site1625],8.53 ± 0.33
17,ATTGTATCTGTATATGCACACAATATCTGTACTTCT [CACACA_site5445],8.77 ± 0.3
18,CGAAATCATATGTACACACACATATATATATATATA [CACACA_site2151],10.2 ± 0.62
19,TTTCAATACTGAAACTGTACTTGTTTTACTTCTATT [XGTACX_site5924],8.42 ± 0.16
20,AAATAAAGCACACCGACACACACATATATATATATA [CACACA_site8256],10.2 ± 0.33
21,TATATATATGTATACACACATACAAATATGTAAAAA [CACACA_site3720],8.4 ± 0.35
22,TTATAATTTTTTTTTGCATGTGGGTTTTTTTTTGTT [TGCATGCA_site968],8.96 ± 0.42
23,ATAAAGAAACATATATGTACTTATATATATATATAT [XGTACX_site5625],10.1 ± 0.35

row,Sequence,gcPBM binding intensity (ln)
1,TATTCGAAAGAATAGGCATGCAAACATATCTTATTA [TGCATGCA_site147],8.95 ± 0.41
2,TATTATTTATTATATGCACACATCGAACTATTATTT [CACACA_site2544],8.73 ± 0.35
3,AAACATATAAATCACGGTACACATTATTGAAAGTGT [XGTACX_site2966],8.66 ± 0.33
4,ATATAATATTAGTGCACACACAAAAATGTACTAAAC [CACACA_site632],9.22 ± 0.36
5,TTCTATATTATATATGCATGTGTTATTCTTATTTTC [TGCATGCA_site92],9.13 ± 0.4
6,ATATATATTATATGCACACTTATATTTCATTAGATT [CACACA_site2599],8.69 ± 0.057
7,ATTAATCCAAATGAATGTACTTAATAATGTAATTAT [XGTACX_site8946],8.2 ± 0.33
8,AAAAAAAAAATACATACACACACACCCACCCATATA [CACACA_site9187],9.14 ± 0.54
9,TGTCCCCCTTTCTATGCACACTTTAAATTATTCAAA [CACACA_site4200],9.06 ± 0.23
10,ATATTTAGAATGTTCCTACACACCAAATTTAAGTGG [CACACA_site2346],8.45 ± 0.36
11,TTTATTTTACAAAAAAGTACAAGAAGAAATATCAAT [XGTACX_site7812],8.7 ± 0.45
12,TATTAAAAGTAAAAAACACACATGGATAAATACATA [CACACA_site6048],8.65 ± 0.41
13,ATATATAATATATGTGGTACGCAAAATATTATATTA [XGTACX_site4969],8.6 ± 0.35
14,AATACACGCAAACACACACACACACCCACATATATA [CACACA_site638],8.71 ± 0.4
15,AATGATATATTATAAACACACAAAGATGGATATATA [CACACA_site7349],8.47 ± 0.44
16,TTATATATAAATGAAAGTACAAAACAGGAAAGAATA [XGTACX_site1076],9.23 ± 0.51
17,GAACATTTCACATGGTGTACTCTCTTTTTCAAATAA [XGTACX_site1632],8.51 ± 0.4
18,TCAATATACCAAAAATGTACAAAAAATAAACAATAT [XGTACX_site8251],9.05 ± 0.54
19,TTTATATTATAATATAATAATGATCTTAATTTTTTT [XGTACX_negctrl_site100],8.21 ± 0.3
20,TATAACAAGTAATGTTGTACATTATATTATGTAATA [XGTACX_site2769],8.17 ± 0.26
21,TTTTTTATTATTATGTGTACGAATATGTGCATATAA [XGTACX_site1364],8.52 ± 0.14
22,TAAAAAAAAAAAATGTGTACATATTATATATATCTT [XGTACX_site2615],8.22 ± 0.3
23,ATGAGTATACTAAGAACACACAAGTTACTTGGTGTT [CACACA_site4981],8.64 ± 0.4

row,Sequence,gcPBM binding intensity (ln)
1,GTTACACAAACAAACACACACACACGCACGCACAAA [CACACA_site7191],8.73 ± 0.28
2,TTTTTTCTCTATATATGTACATATAAAAAATATATC [XGTACX_site6382],8.68 ± 0.26
3,CATATTATTTAAACATGTACTCACATATAAATATAA [XGTACX_site6096],8.39 ± 0.27
4,ATTTTATAATTTATATCACACACATATATATATAGT [CACACA_site7885],8.57 ± 0.33
5,TGTTTATAAATATAAAAAAATATATATATATATTAT [GTGCAC_negctrl_site247],8.18 ± 0.3
6,ACCATAACATGAATTACAGGAATTGAAAATGTTCCA [CACACA_negctrl_site649],8.25 ± 0.41
7,TATATATATATATTCACACATAAGATGAATAAAGTG [CACACA_site4225],9.91 ± 0.27
8,CAAAATTAATAAGTCACACACACATCTATAATATAT [CACACA_site6519],8.56 ± 0.6
9,TTCTTTATTTTTTCTACACACATTAGATATTCAAAG [CACACA_site7624],8.71 ± 0.32
10,GTATTATATATAAAAGTGCATATTTTTTTCCCTTAC,8.82 ± 0.18
11,GGTTACATTTTATTTTGTACATAAAAATTTTTATTT [XGTACX_site218],8.82 ± 0.34
12,ATAAAATTTTATATGGGTACATAATATAATATATAT [XGTACX_site8160],8.84 ± 0.41
13,ATATATATATATATATGTACACATATATTTCTTTTC [XGTACX_site3443],10 ± 0.47
14,TTTAAAAATTAATTCTGTACACATTTTTATTATATT [XGTACX_site4212],8.54 ± 0.39
15,AAATGATATAAATTATAAAATGGATTTTTTCCATTG [CACACA_negctrl_site420],7.86 ± 0.29
16,ATTCCTGGACCGTTCATGCACTTGCAGAACGTCCAT,8.47 ± 0.25
17,TTTATGAAATGTTGCACACAAAAAACAACATGTTTT [CACACA_site1440],8.44 ± 0.33
18,AAAAAAAAAAAAAGTGCACACGATTTAAGGCCTATA [CACACA_site2823],8.83 ± 0.13
19,CTCTATATATTATTATGTACTAAATGTATGTATGTA [XGTACX_site7151],8.48 ± 0.28
20,TTCTTCTGTTTTATTACACACCATTTTGTGTCTACA [CACACA_site8643],9.29 ± 0.5
21,ATGAATGAATAAAGAAGTACGGAAATATTAACAAAA [XGTACX_site4695],8.87 ± 0.46
22,AAAACACAATTTATTACACACATATATTATATATTA [CACACA_site1420],8.21 ± 0.4
23,TAACACACTAAGAAAAGTACTGATTAATATAATTTT [XGTACX_site5536],8.2 ± 0.36

row,Sequence,gcPBM binding intensity (ln)
1,ATAACATACATAACAACACACAATATTTATCTGTAT [CACACA_site4279],8.71 ± 0.43
2,ATATATAATTCCCAAGTGCATTTATTTTAATTATTA,8.87 ± 0.26
3,TTCATTCAAATCCAAGCATGCTTTATTAAAAAATTA [TGCATGCA_site567],8.54 ± 0.47
4,AATAAATTTCAAAATTGTACTCATTTCCTTTCCCAA [XGTACX_site5887],8.43 ± 0.38
5,TACGCCTATAACGGCTGTACACCTTACTTTTTTTAA [XGTACX_site6818],8.54 ± 0.36
6,TATGATTTTTATATATGTACGTATGGTGTTTTACAA [XGTACX_site6100],8.8 ± 0.42
7,TGTGAAATAAAATTTGTACACACATATATATATATA [CACACA_site8093],10.1 ± 0.34
8,GAACTAATAATGAAAAGTACACATACACATATATAT [XGTACX_site6789],8.73 ± 0.24
9,AAATGTATACACATGGTGCGTAATATATTATATATA [GTGCAC_site9877],8.99 ± 0.17
10,CTACCAAATCTATAGACACACATATATATATATATT [CACACA_site2486],8.56 ± 0.33
11,TTTATATAATAGTTATGTACTTAAACGAAAGATACA [XGTACX_site8495],8.52 ± 0.34
12,AAATACAAGGGACATGCATACCACTATTTTTTAAAT [TGCATGCA_site588],8.51 ± 0.28
13,AAAGATATTTTTATCTCACACATATAATATATATAT [CACACA_site5478],9.07 ± 0.12
14,GTTACTGCATACATAACACACATATTCAAAACACAT [CACACA_site3502],8.85 ± 0.76
15,TATTTACAGACATGCGCACACATAAATAAATAATAG [CACACA_site2411],8.96 ± 0.3
16,GCATATGTATATAATGTGCACATGGATTATATAAAA,8.96 ± 0.11
17,TATAGAAAATTTATATGTACATATATATATATATAT [XGTACX_site4451],10.1 ± 0.44
18,TAAAATTTAAGTTATACACACTTAAGTAACATCATC [CACACA_site6395],8.72 ± 0.37
19,CACTTTAATTTATGCACACATATGGAACAACAGCCA [CACACA_site994],9.17 ± 0.14
20,TAAGTTTGTCAATCAACACACACCTATTTATTATAT [CACACA_site3919],8.38 ± 0.39
21,TTTTTTGACATTCCTTTTAATAATTAACGAAAGGCA [GTGCAC_negctrl_site377],8.2 ± 0.33
